Data taken from article PMC6919601, “Identification of Plasmodium dipeptidyl aminopeptidase allosteric inhibitors by high throughput screening” (PLoS ONE, 2019).
“And” between values parts separate entries of the source, which are not always exact repeats. Equal entries are not always repeated. Out of some 110,000 compounds screened, about 230 (0.21%) showed an effect of 50% or more. This is one part of the list.
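Note: 30 min substrate incubation versus DMSO and 10 µM JCP410 controls.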

The compounds below were run against DPAP1 (Plasmodium falciparum, UniProt Q8IIJ9) (assay: primary screen, percent inhibition; read by cleavage of a fluorogenic dipeptide substrate; higher = more effect of the substance).
Sequence of DPAP1 (Q8IIJ9 whole entry, looked up): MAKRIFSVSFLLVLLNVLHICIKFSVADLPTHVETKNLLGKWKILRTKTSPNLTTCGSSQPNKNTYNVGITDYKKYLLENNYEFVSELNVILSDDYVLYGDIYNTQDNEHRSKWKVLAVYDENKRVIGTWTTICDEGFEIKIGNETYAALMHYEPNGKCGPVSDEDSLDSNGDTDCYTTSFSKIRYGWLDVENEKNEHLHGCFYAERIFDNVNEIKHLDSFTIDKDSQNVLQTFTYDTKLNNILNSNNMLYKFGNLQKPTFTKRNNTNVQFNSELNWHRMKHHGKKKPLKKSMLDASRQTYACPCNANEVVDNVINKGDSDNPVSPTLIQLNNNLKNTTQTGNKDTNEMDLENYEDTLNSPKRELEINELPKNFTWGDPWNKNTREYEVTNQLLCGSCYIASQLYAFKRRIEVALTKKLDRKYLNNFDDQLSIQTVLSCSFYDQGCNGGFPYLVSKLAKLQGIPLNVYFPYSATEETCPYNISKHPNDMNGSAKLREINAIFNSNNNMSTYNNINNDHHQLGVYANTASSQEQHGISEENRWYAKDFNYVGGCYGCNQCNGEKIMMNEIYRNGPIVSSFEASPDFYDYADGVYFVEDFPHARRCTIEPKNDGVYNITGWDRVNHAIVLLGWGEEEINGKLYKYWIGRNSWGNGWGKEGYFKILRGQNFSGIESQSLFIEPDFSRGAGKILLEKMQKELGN
Set-up: species or system P. falciparum D10 trophozoite lysates; single well
In the case of `Cc1ccccc1C(=O)Nc1sc2c(c1C#N)CCCC2`, the “% Inhibition @ 10 uM” value is reported as -2.8%.
For `O=C(Nc1ccc(Br)c2cccnc12)c1ccco1`, the “% Inhibition @ 10 uM” value was 0.716%.
With `CCCC(=O)CSc1nc(O)cc(C)c1C#N` the “% Inhibition @ 10 uM” value was 2.76%.
`COc1ccc(/C=C/C(=O)N2CCN(Cc3ccc4c(c3)OCO4)CC2)cc1` was tested, and the “% Inhibition @ 10 uM” value was -2.98%.
With `COc1ccc(C2C(C#N)=C(N)N(c3nc[nH]n3)C3=C2C(=O)CCC3)cc1OC` (stereo not shown) the “% Inhibition @ 10 uM” value was -1.98%.
With `Cc1ccc(S(=O)(=O)N2CCC(C(=O)N3CCC(C(=O)NCc4cccnc4)CC3)CC2)cc1` the “% Inhibition @ 10 uM” value was -1.34%.
For `CC12CCC(C(=O)Nc3ccncc3)(c3nc4ccccc4nc31)C2(C)C` (stereo not shown), the “% Inhibition @ 10 uM” value was -5.31%.
`CC1(C)Cc2c(sc3[nH]c(=S)n(C4CCCCC4)c(=O)c23)CO1` was tested, and the “% Inhibition @ 10 uM” value was -7.54%.
`N#Cc1ccc(C(=O)Nc2cccc(C(F)(F)F)c2)c(F)c1` was tested, and the “% Inhibition @ 10 uM” value was -1.82%.
`N#CSc1ccc(N/C=C2/C(=O)NC(=O)N(c3cccc(Cl)c3)C2=O)cc1` was tested, and the “% Inhibition @ 10 uM” value was 5.89%.
In the case of `O=C(Nc1cccc(-c2nc3ncccc3o2)c1)c1cccc2ccccc12`, the “% Inhibition @ 10 uM” value is reported as 7.47%.
With `CCOc1ccc(C2=CC(c3ccccc3F)n3ncnc3N2)cc1Cl` (stereo not shown) the “% Inhibition @ 10 uM” value was 0.0842%.
`CC(C)(C)c1ccc(C(CC(=O)O)NC(=O)c2ccco2)cc1` (stereo not shown) was tested, and the “% Inhibition @ 10 uM” value was 2.57%.
In the case of `Cc1ccc2c(CN3CCN(Cc4ccccc4F)CC3)cc(=O)oc2c1`, the “% Inhibition @ 10 uM” value is reported as 0.635%.
With `CN1CCN(CCCNC(=O)c2ccc3c(c2)sc2nc(-c4ccccc4)cn23)CC1` the “% Inhibition @ 10 uM” value was 11.9%.
With `COc1cc(C)c(/C=C2/NC(=O)NC2=O)cc1C(C)C` the “% Inhibition @ 10 uM” value was -2.98%.
For `Cc1c(C(=O)N(C)CCC#N)oc2ccc(S(=O)(=O)N3CCOCC3)cc12`, the “% Inhibition @ 10 uM” value was 0.387%.
`CCOC(=O)N1CCC(NCc2ccccc2Cl)CC1` was tested, and the “% Inhibition @ 10 uM” value was 5.03%.
In the case of `CN1CCN(S(=O)(=O)c2cnccc2N2CCN(c3cccc(Cl)c3)CC2)CC1`, the “% Inhibition @ 10 uM” value is reported as 0.83%.
For `Cc1nn(C(C)C(=O)N2CCOCC2)c(=O)c2nn(-c3ccccc3)c(C)c12` (stereo not shown), the “% Inhibition @ 10 uM” value was -2.49%.
With `Cc1ccc(CSc2nc3ccc(C(=O)N4CCCC4)cc3n2C)cc1` the “% Inhibition @ 10 uM” value was -2.31%.
`O=C(Nc1cnc(O)nc1O)c1ccccc1` was tested, and the “% Inhibition @ 10 uM” value was 1.27%.
`Cc1ccccc1S(=O)Cc1ccc(C(=O)NC2CCN(Cc3ccccc3)CC2)o1` (stereo not shown) was tested, and the “% Inhibition @ 10 uM” value was 4.9%.
With `CCOc1ccc(NC(=O)C2=C(C)NC(=O)NC2c2ccc(O)cc2)cc1` (stereo not shown) the “% Inhibition @ 10 uM” value was -3.5%.
With `NS(=O)(=O)c1ccc(CCNC(=O)c2cc(=O)c3cc(Cl)ccc3o2)cc1` the “% Inhibition @ 10 uM” value was 1.7%.
`O=C(c1ccc(Br)cc1)N(Cc1ccccc1)c1ccccn1` was tested, and the “% Inhibition @ 10 uM” value was 0.366%.
For `COc1ccc(CCNC(=O)CNS(=O)(=O)c2cccs2)cc1OC`, the “% Inhibition @ 10 uM” value was -2.12%.
For `COc1ccc(C(=O)Nc2ccc(S(=O)(=O)Nc3cc(C)nc(C)n3)cc2)cc1OC`, the “% Inhibition @ 10 uM” value was 1.05%.
In the case of `CCCCCn1c(CN2CCc3ccccc3C2)nc2c1c(=O)n(C)c(=O)n2C`, the “% Inhibition @ 10 uM” value is reported as 0.317%.
`CCCCN(Cc1ccco1)C(=O)Cn1ncc2c1-c1cc(C)ccc1OC2` was tested, and the “% Inhibition @ 10 uM” value was 1.47%.
With `Cc1oc(-c2ccc(Cl)cc2)nc1CN1CCC(C(=O)NCCN(C)CCc2ccccc2)CC1` the “% Inhibition @ 10 uM” value was 8.55%.
`CCOc1cc(C(=O)N2CC(C)OC(C)C2)cc(OCC)c1OCC` (stereo not shown) was tested, and the “% Inhibition @ 10 uM” value was 3.04%.
In the case of `COc1ccc(C)cc1NC(=O)c1ccc(Cl)cc1Cl`, the “% Inhibition @ 10 uM” value is reported as 5.73%.
In the case of `CC(C)CNS(=O)(=O)c1ccc(CCC(=O)NC2CC2)cc1`, the “% Inhibition @ 10 uM” value is reported as -2.28%.
In the case of `CC1=C(C(=O)Nc2ccccc2)C(c2cccs2)n2c(s/c(=C/c3cn(C)nc3C)c2=O)=N1` (stereo not shown), the “% Inhibition @ 10 uM” value is reported as -3.04%.
With `COc1ccc(CNc2nc(-c3ccco3)nn2C(=O)c2ccco2)cc1` the “% Inhibition @ 10 uM” value was -5.08%.
For `CCOc1ccc(N2C(=O)/C(=C/c3ccc(C)o3)C(=O)NC2=S)cc1`, the “% Inhibition @ 10 uM” value was 7.31%.
For `O=S1(=O)CCC(NC(=S)SCc2ccccc2)C1` (stereo not shown), the “% Inhibition @ 10 uM” value was 4.88%.
In the case of `Cn1c(=O)[nH]c(=O)c2c1nc(NCCc1ccccc1)n2Cc1ccccc1Cl`, the “% Inhibition @ 10 uM” value is reported as 3.66%.
With `CCC(=O)Nc1ccc2nc(SCC(=O)N3CCOCC3)sc2c1` the “% Inhibition @ 10 uM” value was -4.67%.
With `NS(=O)(=O)c1ccc(NC(=O)C2CCN(C(=O)c3cccs3)CC2)cc1` the “% Inhibition @ 10 uM” value was 4.53%.
For `O=S(=O)(NCC(c1ccccc1)N1CCCCCC1)c1ccc(Cl)cc1` (stereo not shown), the “% Inhibition @ 10 uM” value was 5.7%.
With `COc1ccc2nc(N3CCCC(C(=O)NCCCOC(C)C)C3)sc2c1` (stereo not shown) the “% Inhibition @ 10 uM” value was -3.79%.
In the case of `Brc1ccc(-n2nnnc2-c2ccccc2)c(Br)c1`, the “% Inhibition @ 10 uM” value is reported as 7.5%.
`CCCn1c(=N)n(CC(=O)c2cccs2)c2ccccc21` was tested, and the “% Inhibition @ 10 uM” value was -4.03%.
With `Cc1cc(C(F)(F)F)nn1CC(=O)Nc1ccc(Cl)c(Cl)c1` the “% Inhibition @ 10 uM” value was 3.96% and 4.31%.
For `COc1ccc(-c2cn3c(n2)sc2cc(C(=O)NCCN(C)C)ccc23)cc1`, the “% Inhibition @ 10 uM” value was 4.03%.
For `Cc1sc(NC(=O)COc2ccc(-c3ccccc3)cc2)c(C(N)=O)c1C`, the “% Inhibition @ 10 uM” value was -3.26%.
With `O=C(O)C1Sc2ccccc2Oc2ccccc21` (stereo not shown) the “% Inhibition @ 10 uM” value was 3.75%.
